Out of some 50,000 compounds screened, about 800 (1.6%) showed an effect of 50% or more. The list shows a part of the results.
Molecular target: Bcl-2-like protein 10 (Homo sapiens) (UniProt Q9HD36)
Assay: TR3 peptide-Bcl-B binding displacers, biochemical primary FP assay, phenotype converters (AID 1240);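 also: 0% = Bcl-B with tracer peptide and DMSO and 100% = tracer peptide lacking Bcl-B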
Conditions: GST-Bcl-B / FITC-TR3 peptide fluorescence polarization; stronger effect = higher value; compound at 3.75 mg/L

UniProt Q9HD36, sequence (Q9HD36 whole entry, looked up): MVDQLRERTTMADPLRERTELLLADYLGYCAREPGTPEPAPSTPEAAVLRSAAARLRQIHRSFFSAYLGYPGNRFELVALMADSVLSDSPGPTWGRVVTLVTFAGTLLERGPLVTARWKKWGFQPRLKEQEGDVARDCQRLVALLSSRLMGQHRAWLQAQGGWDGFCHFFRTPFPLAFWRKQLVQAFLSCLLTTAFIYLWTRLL

In order of falling displacement:
1. CCOc1ccc(/C=C2\SC(=S)N(c3ccc(OC)cc3)C2=O)cc1OC  114%
2. COc1ccc(N)cc1-n1c(C)ccc1C  42.5%
3. O=C(O)CCCC(=O)OCc1ccco1  31.3%
4. O=C(COc1ccc2ccccc2c1)Nc1cc([N+](=O)[O-])ccc1F  29.5%
5. CCCC1=NN(C(=O)c2ccccc2Cl)C(O)(C(F)(F)F)C1 (stereo unspecified)  20.7%
6. O=C(Nc1cccnc1)c1ccc(-c2ccc(Cl)cc2)o1  17.7%
7. Cc1ccc2[nH]c(O)c(N=NC(=O)COc3ccccc3)c2c1Br  16.5%
8. O=C(Nc1cccc(O)c1)c1cccc(NC(=O)c2cccs2)c1  16.1%
9. O=C1CCC(C(=O)OCC(=O)c2ccc([N+](=O)[O-])cc2)N1 (stereo unspecified)  15.8%
10. C=CCNC(=O)CN(c1ccc(OC)cc1)S(=O)(=O)c1ccccc1  15.4%
11. COc1ccc(/C=C2\SC(=O)N(c3ccccc3OC)C2=O)cc1  15.2%
12. Cc1ccc(S(=O)(=O)/N=C(/Nc2cccc([N+](=O)[O-])c2)c2ccccc2)cc1  14.7%
13. O=C(c1cc(F)c(F)cc1Cl)N1CCN(c2ccc([N+](=O)[O-])cc2Cl)CC1  14.1%
14. Nc1cc(N)c(OCC(F)(F)F)cc1OCC(F)(F)F  14%
15. COc1ccc(NC(=O)COc2cccc3ccccc23)cc1  13.5%
16. C=CCc1ccccc1OCCOc1cccc(/C=c2\sc3nc4ccccc4n3c2=O)c1  13.4%
17. Cc1cc2ncn(C(=O)c3ccc([N+](=O)[O-])cc3)c2cc1C  13.2%
18. NC1=NC(=O)/C(=C\c2ccc(S(=O)(=O)O)cc2)S1  12.8%
19. Cc1cc2oc(=O)cc(C)c2cc1[N+](=O)[O-]  12.4%
20. O=C(Cc1cccc2ccccc12)NCc1ccco1  12.2%
21. Cc1cccc(-c2nnc(NC(=O)Nc3ccccc3)s2)c1  11.9%
22. Cc1ccc(/C=C/C(=O)Nc2ccc([N+](=O)[O-])cc2)o1  11.8%
23. CCOc1ccc(/C=C2/SC(=O)N(CNc3ccc(Br)cc3)C2=O)cc1  11.7%
24. CC(=O)Oc1cccc2ccc(=O)[nH]c12  11.4%
25. CCC(C(=O)N1CCc2ccccc21)c1ccccc1 (stereo unspecified)  11.1%
26. Cc1ccc(C(=O)N(Cc2ccccc2)Cc2ccccc2)cc1[N+](=O)[O-]  10.5%
27. CCCc1c(C)[nH]c2c(OC)cccc2c1=O  10.4%
28. O=C(c1ccc(Cl)cc1)c1ccccc1C(=O)n1nnc2ccccc21  10.3%
29. C/C(=N\N=C1\NC(=O)C(CC(=O)Nc2ccc([N+](=O)[O-])cc2)S1)c1ccc(F)cc1 (stereo unspecified)  10.1%
30. COc1ccc2c(oc(=O)c3ccccc32)c1C  9.8%
31. COc1ccc2c(c1)c(C(C)=O)c(C)n2C  9.8%
32. CCOC(=O)N/N=C/c1ccccc1F  9.5%
33. Cc1ccc(NC(=O)Cn2cnc3c2c(=O)n(C)c(=O)n3C)nc1  9.5%
34. CCOC(=O)Cn1nc(C(F)(F)F)c(Cl)c1C  9.1%
35. CC(=O)N/C(=C/c1ccc(Cl)cc1)C(=O)N1CCOCC1  9%
36. O=C(/C=C/c1ccccc1)NC(CCC(=O)OCc1ccccc1)C(=O)OCc1ccccc1 (stereo unspecified)  8.2%
37. COc1cccc(OCCCN2CCOCC2)c1  7.9%
38. COc1cccc(C2C(C(C)=O)=C(O)C(=O)N2c2nc3ccccc3s2)c1 (stereo unspecified)  7.7%
39. COc1cc(OC)c(/C=C2/C(C)=C(C#N)c3nc(N)c(C#N)c(C)c32)cc1Br  7.1%
40. Cc1c(N/C(=N\S(=O)(=O)c2ccccc2)c2ccccc2)c(=O)n(-c2ccccc2)n1C  6.8%
41. CC/C(=C/C(=O)c1ccncc1)Nc1cccc(O)c1  6.6%
42. COc1ccccc1CC1CC(=O)N(c2ccc(I)cc2)C1=O (stereo unspecified)  6.3%
43. CCN(CC)CCSc1nc(O)c(CC(C)C)c(=O)[nH]1  5.5%
44. Cc1cc(C)nc(Nc2nc(=O)c3ccccc3s2)n1  5.5%
45. CCN(CC)CCSc1nc(O)c(C(C)C)c(=O)n1-c1ccccc1  5.3%
46. COc1cc([N+](=O)[O-])ccc1-c1ccc(/C=C2\C(=O)N(c3ccc(S(N)(=O)=O)cc3)N=C2C)o1  5.3%
47. COc1ccc(C2(CNC(=O)c3ccccc3)CCCC2)cc1OC  5.2%
48. Cc1ccc(OCC(=O)N/N=C\c2cccnc2)cc1  5%
49. COC(=O)C1=CN(Cc2ccc(F)cc2)C=C(C(=O)OC)C1c1cc(OC)c(OC)c(OC)c1  4.7%
50. COc1ccc(OC)c(N(CC(=O)Nc2cccc(Cl)c2)S(=O)(=O)c2ccc(OC)c(OC)c2)c1  4.1%
51. O=C1C(=O)N(Cc2ccc3c(c2)OCO3)c2ccccc21  4%
52. CCOc1ccc(N(CC(=O)Nc2ccc(Cl)cc2C)S(C)(=O)=O)cc1  3.9%
53. Cc1nc2sc3c(c2c2nncn12)CCCC3  3.8%
54. O=C(Cc1ccccc1)N1N=C(c2ccc(Cl)cc2)CC1(O)C(F)(F)F (stereo unspecified)  3.5%
55. CC(=C/C(=O)O)/C=C/c1c[nH]c2ccccc12  3.2%
56. COc1cc(NC(=O)C(F)(F)F)c(Cl)cc1NC(=O)c1ccccc1  2.9%
57. O=C(Nc1nccs1)C(c1ccccc1)c1ccccc1  2.7%
58. CCOC(=O)C1=C(C)N=c2s/c(=C\C=C\c3ccccc3)c(=O)n2C1c1cccc([N+](=O)[O-])c1 (stereo unspecified)  2.6%
59. COc1ccc(N(CC(=O)Nc2ccc(OC)c(OC)c2)S(C)(=O)=O)cc1  2.4%
60. CCCCOc1ccc(S(=O)(=O)n2nc(C)cc2C)cc1  2.3%
61. CCCOC(=O)C1=C(C)NC2=C(C(=O)CC(c3ccc(OC)cc3)C2)C1c1ccc(OCc2ccccc2)c(OC)c1 (stereo unspecified)  2.2%
62. O=C(CSCc1cccc(Br)c1)NCc1ccccc1  2.2%
63. COC(=O)c1cc(C(=O)OC)cc(S(=O)(=O)O)c1  2.1%
64. CCN(CC)CCCN1C(=O)C(C)SC1c1ccccc1[N+](=O)[O-] (stereo unspecified)  1.6%
65. Nc1cc(=O)[nH]c(SCc2ccccc2)n1  1%
66. CC(=O)C12CCCCC1CC1C3CC(C)[C@@]4(O)CC(O)CCC4(C)C3CCC12C (stereo partly specified)  0%
67. COc1cc2c(cc1OC)C1(CCOCC1)CN(C)C2  -0.3%
68. O=C(CCN1C(=O)S/C(=C\c2ccccc2)C1=O)N1CCOCC1  -0.3%
69. Cc1cc(C)c2c(c1)=C(c1sc(N)nc1O)C(=O)N=2  -0.5%
70. COc1ccccc1N1CCN(C(=O)c2ccc(N(Cc3ccccc3)S(C)(=O)=O)cc2)CC1  -0.6%
71. O=[N+]([O-])c1ccc2c(c1)Cc1cc(N=Cc3ccccc3F)ccc1-2  -0.7%
72. O=C(Nc1cccc(Cl)c1)Nc1ccc(Br)cn1  -1%
73. CC(C)c1c(O)nc(SCC(=O)O)[nH]c1=O  -1.5%
74. CCOC(=O)C1=C(C)NC(=S)NC1c1ccc(C)cc1 (stereo unspecified)  -2.1%
75. Cc1ccc(C2C3=C(Nc4c2c(=O)[nH]c(=O)n4C)c2ccccc2C3=O)cc1 (stereo unspecified)  -2.2%
76. Cc1cc(C)cc(OC(=O)COc2ccc(Br)cc2Br)c1  -2.9%
77. COC(=O)C1=C(C)N(C)C(C)=C(C(=O)OC)C1c1ccc(Cl)cc1Cl  -3.4%
78. COc1cc(OC)c(OC)cc1CN1CCN(Cc2cc(OC)c(O)c(OC)c2)CC1  -3.8%
79. CC1(C)CC(C(CC(=O)O)Cc2ccccc2)CCO1 (stereo unspecified)  -4.6%
80. c1ccc(CN2CCC(N3CCN(C4CCCCCC4)CC3)CC2)cc1  -4.8%
81. COc1cc2c(cc1NC(=O)CC(C)=O)oc1ccccc12  -5%
82. Cc1oc(C(=O)O)cc1CSCc1oc(-c2ccccc2)cc1C(=O)O  -5.6%
83. COc1cc(OC)c(C=Nc2ccccc2C(=O)Nc2ccccc2)cc1Br  -6%
84. NC(=O)c1c(NC(=O)C2C3C=CC(C3)C2C(=O)O)sc2c1CCCCC2 (stereo unspecified)  -6.8%
85. Cc1ccc(-n2nc3cc(C)c(NC(=O)c4ccc(Cl)cc4Cl)cc3n2)cc1  -6.9%
86. CC(C)C1=NN2C(=N)/C(=C/c3cc(Cl)ccc3OCc3ccccc3)C(=O)N=C2S1  -7.4%
87. COc1ccc(S(=O)(=O)N/N=C/c2cc3c(cc2Cl)OCO3)cc1  -7.7%
88. COc1ccccc1-c1coc2c(CN(CC(C)C)CC(C)C)c(O)ccc2c1=O  -7.7%
89. Cc1ccc(C)c(N(CC(=O)NCc2ccc(Cl)cc2)S(=O)(=O)c2ccccc2)c1  -7.7%
90. COc1ccc(Cl)cc1C(=O)NC(c1ccccc1)c1ccccc1  -8.4%
91. CCc1ccccc1NC(=O)c1ccccc1C(F)(F)F  -8.4%
92. CCOc1ccc(C2/C(=C(\O)c3ccc(Cl)cc3)C(=O)C(=O)N2c2cccnc2)cc1 (stereo unspecified)  -8.7%
93. O=C(CSc1nnc2c(n1)[nH]c1ccccc12)N(c1ccccc1)c1ccccc1  -8.9%
94. O=C(CSc1nc2ccccc2s1)N=Nc1c(O)n(CN2CCCC2)c2ccccc12  -9.3%
95. O=C(/C=C/c1cccs1)Nc1ncc(Cc2cccc(C(F)(F)F)c2)s1  -9.8%
96. Cc1ccc(S(=O)(=O)N2CCN(C/C=C/c3ccccc3)CC2)cc1[N+](=O)[O-]  -10%
97. COC(=O)c1ccc(NC(=O)C2COc3ccccc3O2)cc1 (stereo unspecified)  -10.2%
98. COc1ccc(/C=C2\C(=O)N(c3ccc(F)cc3)N=C2C)cc1  -10.4%
99. CCCCS(=O)(=O)CC(O)COc1ccc(Cl)cc1 (stereo unspecified)  -11.6%
100. O=C(CCc1ccccc1)Nc1ccc(Cl)c(C(F)(F)F)c1  -11.7%
101. CCc1c(C)nc2ccc(C(=O)O)cc2c1Cl  -12%
102. CCC1CCc2c(sc(NC(=O)c3ccc4c(c3)OCO4)c2C(=O)OC)C1 (stereo unspecified)  -12.3%
103. CC(=O)Nc1ccc(N2C(=O)c3cc4ccccc4cc3C2=O)cc1  -12.4%
104. C/C(=C\C(=O)ONC(=O)c1ccccc1)NC(C)C  -12.8%
105. O=C(Nc1ccc(Br)cc1)C1CC(=O)N(c2ccccc2)C1 (stereo unspecified)  -13.6%
106. O=C(Nc1ccc(Br)cc1)NC(c1ccccc1)c1ccccc1  -14.3%
107. c1ccc2c3c([nH]c2c1)/C(=N/N=C1CCCCC1)CCC3  -14.4%
108. O=C1/C(=C\c2ccc(-c3ccc([N+](=O)[O-])cc3Br)o2)Sc2ccccc21  -17.8%
109. Cc1cc(C)cc(NC(=O)COc2ccc3ccccc3c2)c1  -21.3%
110. CC1=NN(c2nc(-c3cc4ccccc4[nH]3)cs2)C(=O)C1C (stereo unspecified)  -22%
111. CCOc1cc(/C=C(\C#N)c2nc3ccc(C)cc3[nH]2)cc(I)c1O  -95.2%
